# Data: the supplement of paper PMC8728848
# The other results are listed elsewhere or left out.
# Assays:
# Assay in all cases: glycan array binding signal (z-score within array); higher = stronger binding
# Settings in all cases: glycan notation: IUPAC condensed, linker removed
# [1] = biological target: Fuc(a1-2)[GalNAc(a1-3)]Gal(b1-4)GlcNAc(b1-3)Gal(b1-4)GlcNAc
# Outline: (§1)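 Arrays were curated from the Consortium for Functional Glycomics database, 3228 in total, and kept only where the protein sequence was available. Binding is expressed as a within-array Z-score. This score was averaged across arrays of the same protein sequence at different concentrations or buffers and across linkers, and negative values can be read as non-binding.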
# [2] = biological target: Fuc(a1-2)[GalNAc(a1-3)]Gal(b1-4)GlcNAc(b1-3)Gal(b1-4)GlcNAc(b1-3)Gal(b1-4)GlcNAc
# Outline: as §1
# [3] = biological target: Fuc(a1-2)[GalNAc(a1-3)]Gal(b1-4)[Fuc(a1-3)]GlcNAc
# Outline: as §1
# [4] = biological target: Fuc(a1-2)[GalNAc(a1-4)]Gal(b1-4)GlcNAc
# Outline: as §1
# [5] = biological target: Fuc(a1-2)[GalNAc(b1-3)]Gal
# Outline: as §1
# [6] = biological target: Fuc(a1-3)GlcNAc
# Outline: as §1
# [7] = biological target: Fuc(a1-3)[Gal(b1-4)]Glc6S
# Outline: as §1
# [8] = biological target: Fuc(a1-3)[Gal(b1-4)]GlcNAc
# Outline: as §1
# [9] = biological target: Fuc(a1-3)[Gal(b1-4)]GlcNAc(b1-2)Man(a1-3)[Fuc(a1-3)[Gal(b1-4)]GlcNAc(b1-2)Man(a1-6)]Man(b1-4)GlcNAc(b1-4)GlcNAc
# Outline: as §1
# [10] = biological target: Fuc(a1-3)[Gal(b1-4)]GlcNAc(b1-3)Gal(b1-3)[Fuc(a1-4)]GlcNAc
# Outline: as §1
# [11] = biological target: Fuc(a1-3)[Gal(b1-4)]GlcNAc(b1-3)GalNAc
# Outline: as §1
# [12] = biological target: Fuc(a1-3)[Gal(b1-4)]GlcNAc(b1-4)Gal(b1-4)[Fuc(a1-3)]GlcNAc
# Outline: as §1
# [13] = biological target: Fuc(a1-3)[Gal(b1-4)]GlcNAc(b1-4)Gal(b1-4)[Fuc(a1-3)]GlcNAc(b1-4)Gal(b1-4)[Fuc(a1-3)]GlcNAc
# Outline: as §1
# [14] = biological target: Fuc(a1-3)[Gal(b1-4)]GlcNAc(b1-6)[Gal(b1-3)GlcNAc(b1-3)]Gal(b1-4)Glc
# Outline: as §1
# [15] = biological target: Fuc(a1-3)[Gal(b1-4)]GlcNAc6S
# Outline: as §1
# [16] = biological target: Fuc(a1-3)[Gal3S(b1-4)]GlcNAc
# Outline: as §1
# [17] = biological target: Fuc(a1-3)[Gal3S(b1-4)]GlcNAc6S
# Outline: as §1
# [18] = biological target: Fuc(a1-3)[GalNAc(b1-4)]GlcNAc
# Outline: as §1
# [19] = biological target: Fuc(a1-4)GlcNAc
# Outline: as §1
# [20] = biological target: Fuc(b1-3)GlcNAc
# Outline: as §1
# [21] = biological target: Gal(a1-2)Gal
# Outline: as §1
# [22] = biological target: Gal(a1-3)Gal
# Outline: as §1
# [23] = biological target: Gal(a1-3)Gal(b1-3)GlcNAc
# Outline: as §1
# [24] = biological target: Gal(a1-3)Gal(b1-3)GlcNAc(b1-2)Man(a1-3)[Gal(a1-3)Gal(b1-3)GlcNAc(b1-2)Man(a1-6)]Man(b1-4)GlcNAc(b1-4)GlcNAc
# Outline: as §1
# [25] = biological target: Gal(a1-3)Gal(b1-3)[Fuc(a1-4)]GlcNAc(b1-2)Man(a1-3)[Gal(a1-3)Gal(b1-3)[Fuc(a1-4)]GlcNAc(b1-2)Man(a1-6)]Man(b1-4)GlcNAc(b1-4)GlcNAc
# Outline: as §1
# [26] = biological target: Gal(a1-3)Gal(b1-4)Glc
# Outline: as §1
# [27] = biological target: Gal(a1-3)Gal(b1-4)GlcNAc
# Outline: as §1
# [28] = biological target: Gal(a1-3)Gal(b1-4)GlcNAc(b1-3)GalNAc
# Outline: as §1
# [29] = biological target: Gal(a1-3)Gal(b1-4)[Fuc(a1-3)]GlcNAc
# Outline: as §1
# [30] = biological target: Gal(a1-3)Gal(b1-4)[Fuc(a1-3)]GlcNAc(b1-2)Man(a1-3)[Gal(a1-3)Gal(b1-4)[Fuc(a1-3)]GlcNAc(b1-2)Man(a1-6)]Man(b1-4)GlcNAc(b1-4)GlcNAc
# Outline: as §1
# [31] = biological target: Gal(a1-3)GalNAc
# Outline: as §1
# [32] = biological target: Gal(a1-3)[Gal(a1-4)]Gal(b1-4)GlcNAc
# Outline: as §1
# [33] = biological target: Gal(a1-4)Gal(b1-3)GlcNAc(b1-2)Man(a1-3)[Gal(a1-4)Gal(b1-3)GlcNAc(b1-2)Man(a1-6)]Man(b1-4)GlcNAc(b1-4)GlcNAc
# Outline: as §1
# [34] = biological target: Gal(a1-4)Gal(b1-4)Glc
# Outline: as §1
# [35] = biological target: Gal(a1-4)Gal(b1-4)GlcNAc
# Outline: as §1
# [36] = biological target: Gal(a1-4)Gal(b1-4)GlcNAc(b1-2)Man(a1-3)[Gal(a1-4)Gal(b1-4)GlcNAc(b1-2)Man(a1-6)]Man(b1-4)GlcNAc(b1-4)GlcNAc
# Outline: as §1
# [37] = biological target: Gal(a1-4)Gal(b1-4)GlcNAc(b1-3)Gal(b1-4)Glc
# Outline: as §1
# [38] = biological target: Gal(a1-4)GlcNAc
# Outline: as §1
# [39] = biological target: Gal(a1-6)Glc
# Outline: as §1
# [40] = biological target: Gal(b1-2)Gal
# Outline: as §1
# [41] = biological target: Gal(b1-3)Gal
# Outline: as §1
# [42] = biological target: Gal(b1-3)Gal(b1-4)GlcNAc
# Outline: as §1
# [43] = biological target: Gal(b1-3)Gal(b1-4)GlcNAc(b1-2)Man(a1-3)[Gal(b1-3)Gal(b1-4)GlcNAc(b1-2)Man(a1-6)]Man(b1-4)GlcNAc(b1-4)GlcNAc
# Outline: as §1
# [44] = biological target: Gal(b1-3)GalNAc
# Outline: as §1
# [45] = biological target: Gal(b1-3)GalNAc(a1-3)[Fuc(a1-2)]Gal(b1-4)Glc
# Outline: as §1
binder,measurement,setting,value
"Ecp6 (Cladosporium fulvum), B3VBK9 (protein) MQSMILFAAALMGAAVNGFVLPRTDDPDCETKATDCGSTSNIKYTVVKGDTLTSIAKKFKSGICNIVSVNKLANPNLIELGATLIIPENCSNPDNKSCVSTPAEPTETCVPGLPGSYTIVSGDTLTNISQDFNITLDSLIAANTQIENPDAIDVGQIITVPVCPSSQCEAVGTYNIVAGDLFVDLAATYHTTIGQIKALNNNVNPSKLKVGQQIILPQDCKNVTTAVA",glycan array binding signal (z-score),[1],-0.063
same,glycan array binding signal (z-score),[2],-0.085
same,glycan array binding signal (z-score),[3],-0.094
same,glycan array binding signal (z-score),[4],-0.095
same,glycan array binding signal (z-score),[5],-0.077
same,glycan array binding signal (z-score),[6],-0.089
same,glycan array binding signal (z-score),[7],-0.102
same,glycan array binding signal (z-score),[8],-0.06
same,glycan array binding signal (z-score),[9],-0.106
same,glycan array binding signal (z-score),[10],-0.094
same,glycan array binding signal (z-score),[11],-0.088
same,glycan array binding signal (z-score),[12],-0.069
same,glycan array binding signal (z-score),[13],-0.068
same,glycan array binding signal (z-score),[14],-0.098
same,glycan array binding signal (z-score),[15],-0.103
same,glycan array binding signal (z-score),[16],-0.098
same,glycan array binding signal (z-score),[17],-0.073
same,glycan array binding signal (z-score),[18],-0.089
same,glycan array binding signal (z-score),[19],-0.098
same,glycan array binding signal (z-score),[20],-0.083
same,glycan array binding signal (z-score),[21],-0.1
same,glycan array binding signal (z-score),[22],-0.071
same,glycan array binding signal (z-score),[23],-0.065
same,glycan array binding signal (z-score),[24],-0.052
same,glycan array binding signal (z-score),[25],-0.056
same,glycan array binding signal (z-score),[26],-0.067
same,glycan array binding signal (z-score),[27],-0.064
same,glycan array binding signal (z-score),[28],-0.102
same,glycan array binding signal (z-score),[29],-0.102
same,glycan array binding signal (z-score),[30],-0.093
same,glycan array binding signal (z-score),[31],-0.083
same,glycan array binding signal (z-score),[32],-0.078
same,glycan array binding signal (z-score),[33],-0.099
same,glycan array binding signal (z-score),[34],-0.1
same,glycan array binding signal (z-score),[35],-0.102
same,glycan array binding signal (z-score),[36],-0.075
same,glycan array binding signal (z-score),[37],-0.101
same,glycan array binding signal (z-score),[38],-0.102
same,glycan array binding signal (z-score),[39],-0.065
same,glycan array binding signal (z-score),[40],-0.087
same,glycan array binding signal (z-score),[41],-0.082
same,glycan array binding signal (z-score),[42],-0.104
same,glycan array binding signal (z-score),[43],-0.096
same,glycan array binding signal (z-score),[44],-0.081
same,glycan array binding signal (z-score),[45],-0.1
